Measurements: the supplement of paper PMC8183993
“And” between values parts separate entries of the source, which are not always exact repeats. Identical values can stand only once. Counter-ions that a name gives are not always drawn. ± gives the standard deviation of the averaged measurements. In all, about 3,100 compounds were measured (“mean cytoplasmic OPP incorporation (global translation) relative to DMSO”: median about 100, lowest 2% from about 56 on). Some of the results follow.

What follows are compounds tested on U2OS (assay: mean cytoplasmic OPP incorporation (global translation) relative to DMSO (% of DMSO); higher = more protein synthesis). Conditions: 10 µM; 24 h.
Procedure: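 Primary image-based screen in U2OS cells: compounds at 10 uM for 24 h, then a 1 h o-propargyl-puromycin (OPP) pulse, click labelling, and high-throughput microscopy. Mean cytoplasmic OPP intensity and nuclei count were normalised to DMSO wells within each plate (DMSO = 100) and averaged over triplicate plates.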

Row | Structure (SMILES) | mean cytoplasmic OPP incorporation
1 | C[N+]1(C)CCC(OC(=O)C(c2ccccc2)c2ccccc2)CC1 | 104
2 | NC(=O)c1ccc(N(C(N)=O)c2c(F)cccc2F)nc1-c1ccc(F)cc1F | 97.9
3 | CC(=O)Oc1ccccc1C(=O)Nc1ncc([N+](=O)[O-])s1 [Nitazoxanide (Alinia, Annita)] | 106
4 | O=Cc1c2[nH]c3ccccc3c2cc2[nH]c3ccccc3c12 [6-Formylindolo [3,2-B] carbazole] | 92.9
5 | COc1c(C)c(C(=O)c2ccc(N)c(C(=O)O)c2)n2ccccc12 | 105
6 | CCCCC/N=c1\ccn(Cc2ccccc2)c2ccccc12 | 96.1
7 | O=C1c2c(O)cccc2Cc2cccc(O)c21 [Anthralin] | 94.4
8 | CN1c2cc3c(cc2N=C(c2ccc(C(=O)O)cc2)c2ccccc21)C(C)(C)CCC3(C)C | 99.4
9 | COc1nccc(-c2c(-c3ccc(F)cc3)ncn2C2CCC(O)CC2)n1 (stereo unspecified) | 90.8
10 | O/N=C/c1ccc(-c2ccc(O)c(F)c2)c(Cl)c1O | 105
11 | N=C(NC(=O)c1nc(Cl)c(N)nc1N)Nc1ccccc1 [Phenamil] | 101
12 | COc1ccc2c(c1)CCC1C2CCC2(C)C(NCCCCCCN3C(=O)C=CC3=O)CCC12 (stereo unspecified) | 99.5
13 | COc1ccc(-c2ccc3c(N4CCOC[C@@H]4C)nc(N4CCOC[C@@H]4C)nc3n2)cc1CO | 66.3
14 | COC(=O)C1=C(C)NC(C)=C([N+](=O)[O-])C1c1ccccc1C(F)(F)F (stereo unspecified) | 105
15 | COc1cc(C(=O)OCCCN2CCCN(CCCOC(=O)c3cc(OC)c(OC)c(OC)c3)CC2)cc(OC)c1OC [Dilazep dihydrochloride] | 112 ± 3.6
16 | CC(C)C[C@H](NP(=O)(O)O[C@@H]1O[C@@H](C)[C@H](O)[C@@H](O)[C@H]1O)C(=O)N[C@@H](Cc1c[nH]c2ccccc12)C(=O)O [Phosphoramidon] | 105
17 | O=C(/C=C/C#Cc1cccc(NS(=O)(=O)c2ccccc2)c1)NO [Oxamflatin] | 105
18 | Cc1cn[nH]c1 [Fomepizole] | 108
19 | C[C@@H](NCCCc1cccc(C(F)(F)F)c1)c1cccc2ccccc12 [AMG-073 HCl (Cinacalcet HCl)] | 107
20 | CC(=O)Nc1cccc(-n2c(=O)n(C3CC3)c(=O)c3c(Nc4ccc(I)cc4F)n(C)c(=O)c(C)c32)c1 | 92.6
21 | Nc1[nH]cnc2ncnc1-2 [Adenine sulfate] | 94
22 | Nc1[nH]cnc2ncnc1-2 [Adenine] | 113
23 | CC[N+](C)(C)c1cccc(O)c1 [Edrophonium chloride] | 90.8
24 | Cc1ccc(-c2csc3ncnc(SCCC(=O)O)c23)cc1 | 102
25 | COc1ccc(CCN(C)CCCOc2ccc(S(=O)(=O)c3c(C(C)C)n(C)c4ccccc34)cc2)cc1OC | 114
26 | NCCc1c[nH]cn1 [Histamine dihydrochloride] | 95.5

Row | Structure (SMILES) | mean cytoplasmic OPP incorporation
27 | OC(Cn1cncn1)(Cn1cncn1)c1ccc(F)cc1F [Fluconazole] | 95.5
28 | CCCOc1cc(N)ccc1C(=O)OCCN(CC)CC [Propoxycaine hydrochloride] | 99
29 | CC(=O)OCC(=O)[C@@]1(O)CC[C@H]2[C@@H]3CCC4=CC(=O)CC[C@]4(C)[C@H]3[C@@H](O)C[C@@]21C [Cortisol acetate] | 98
30 | CC(C)c1c(C(=O)Nc2ccccc2)c(-c2ccccc2)c(-c2ccc(F)cc2)n1CC[C@@H](O)C[C@@H](O)CC(=O)O [Atorvastatin] | 106
31 | Cc1ncc(C[n+]2csc(CCO)c2C)c(N)n1 [Thiamine hydrochloride] | 101
32 | CCN[C@H]1CN(CCCOC)S(=O)(=O)c2sc(S(N)(=O)=O)cc21 [Brinzolamide] | 105
33 | CC(C)Oc1ccc(-c2c[nH]cc2CN(C)CCN)cc1 | 100
34 | NS(=O)(=O)c1cc(C2(O)NC(=O)c3ccccc32)ccc1Cl (stereo unspecified) [Chlorthalidone] | 96
35 | C=CC(N)CCC(=O)O (stereo unspecified) [Vigabatrin] | 95.4
36 | CC(C)(C)c1cnc(CSc2cnc(NC(=O)C3CCNCC3)s2)o1 | 75.6
37 | CCCCCCCCCCCCCCCC(=O)OC/C=C(C)/C=C/C=C(C)/C=C/C1=C(C)CCCC1(C)C [Retinyl palmitate] | 92.4
38 | CC(=O)OCC(=O)[C@@]1(O)CC[C@H]2[C@@H]3CCC4=CC(=O)CC[C@]4(C)[C@@]3(F)[C@@H](O)C[C@@]21C [Fludrocortisone acetate] | 91.8
39 | CC(=Cc1ccc(C(=O)O)cc1)c1ccc2c(c1)C(C)(C)CCC2(C)C | 101.8 ± 0.51
40 | COC(=O)C1=C(C)NC(C)=C(C(=O)OCCCN2CCC(c3ccccc3)(c3ccccc3)CC2)[C@@H]1c1cccc([N+](=O)[O-])c1 [(R)-(-)-Niguldipine hydrochloride] | 115
41 | COC(=O)Nc1nc2cc(C(=O)c3cccs3)ccc2[nH]1 [Nocodazole] | 88.3 ± 8.4
42 | Cc1ccc(C(=O)c2ccc(CC(=O)O)n2C)cc1 [Tolmetin sodium salt dihydrate] | 98
43 | CCCCN(CCCC)CCCOC(=O)c1ccc(N)cc1 [Butacaine] | 105
44 | O=C(O)CN1C(=O)c2cccc3cccc(c23)C1=O [Alrestatin] | 96.7
45 | CC[N+](C)(CC)CCOC(=O)C1c2ccccc2Oc2ccccc21 [Methantheline bromide] | 108
46 | CC(C)(O)[C@H]1CC[C@@](C)([C@H]2[C@@H](O)C[C@@]3(C)[C@@H]4C[C@H](O[C@@H]5O[C@H](CO)[C@@H](O)[C@H](O)[C@H]5O)[C@H]5C(C)(C)[C@@H](O[C@@H]6OC[C@@H](O)[C@H](O)[C@H]6O)CC[C@@]56C[C@@]46CC[C@]23C)O1 [Astragaloside A] | 103
47 | NNCCc1ccccc1 [Phenelzine sulfate] | 75
48 | C=C1CC[C@H](O)C/C1=C/C=C1\CCC[C@]2(C)[C@@H]([C@H](C)CCCC(C)C)CC[C@@H]12 [Vitamin D3 (Cholecalciferol)] | 99.5
49 | CC(=O)Nc1ccc(C(=O)Nc2ccccc2N)cc1 | 57.3 ± 33
50 | COc1cc2c(Nc3ccc(NC(=O)c4ccccc4)cc3)ncnc2cc1OCCCN1CCOCC1 | 124 and 114
51 | O=C(O)[C@]1(Cc2cccc(Nc3nccs3)n2)CC[C@@H](Oc2cccc(Cl)c2F)CC1 | 96.6 ± 7
